Data taken from PubChem BioAssay AID504339 (National Center for Advancing Translational Sciences (NCATS), 2011).
Screen size: about 390,000 compounds; about 17,000 (4.4%) were called active. The shares of active, inactive and inconclusive entries below differ from those in the screen. The call rests on the fitted dose curve; in most records, active means well fitted inhibition curve with a large enough effect; inconclusive means small, poorly fitted or top-dose-only effect; inactive means no such curve, though single readings can be large or run the other way. Where the call is inconclusive, the potency comes from a doubtful curve fit.

Biological target: Lysine-specific demethylase 4A (Homo sapiens) (UniProt O75164)
Test: qHTS Assay for Inhibitors of JMJD2A-Tudor Domain; further: nearly all actives have a fitted effect of over 50% in size
Conditions: AlphaScreen JMJD2A-Tudor / H3K4me3 peptide binding; activity change, negative = inhibition: at 114 µM (top of the series)
Excerpt: JMJD2A is a jumonji-domain-containing lysine demethylase that uses Fe(II) together with 2-OG to effect oxidative demethylation of histones. Methylation is one of many […] modification that affect epigenetic transcription. […] It is proposed that the functions of JmjD2A binding to the histones, is to maintain marks after they are installed and to spread the modifications by […], establishing a self-propagating cycle for rapid methylation over a large area of chromatin. […] Thus, small molecule targeting of the JMJD2A-tudor domain interaction with its target methylhistone mark is expected to enable sophisticated experiments probing the fine regulatory pathways leading to selective demethylation of a given methyllysine locus based on the methylation state of adjacent histone marks. A quantitative high throughput AlphaScreen has been developed to identify small molecule inhibitors based on a protocol published by NCGC and SGC [4].
Although AlphaScreen has significant advantages with its utility in a variety of epigenetic target assays, the primary screening data provided in this deposition should be used with caution due to the prevalence of screening artifacts. The top compound concentration tested was high (>100uM) in this assay, which increases number of actives and potential artifacts. An AlphaScreen counterscreen is highly recommended to be run against any putative actives to eliminate non-specific artifacts. Alternatively, one can use other AlphaScreen assays in PubChem to filter out promiscuous hits.
[1] Lee, J. et al. Distinct binding modes specify the recognition of methylated histone H3K4 and H4K20 by JMJD2A-tudor. Nat Struct Mol Biol. 15(1); 109-11. 2008. PMID: 18084306
[2] Yasgar, et al. Compound Management for Quantitative High-Throughput Screening. JALA. 2008 Apr;13(2):79-89. PMID: 18496600
[3] Inglese, et al. Quantitative high-throughput screening: a titration-based approach that efficiently identifies biological activities in large chemical libraries. Proc Natl Acad Sci. 1;103(31):11473-8. 2006. PMID: 16864780
[4] Quinn et al. A homogeneous method for investigation of methyl-dependent protein-protein interactions in epigenetics. Nucleic Acids Res., 38(2):e11. 2010. PMID: […]
[5] Baell,Holloway. New substructure filters for removal of pan assay interference compounds (PAINS) from screening libraries and for their exclusion in bioassays. J Med Chem. 53(7):2719-40. 2010. PMID: 20131845
NIH Molecular Libraries Probe Production Network [MLPCN]
NIH Chemical Genomics Center [NCGC]
Structural Genomics Consortium (SGC)
To each well of a 1,536w plate, 2ul of JMJD2A-Tudor (final 100nM) and 1ul biotinylated histone peptide methylated at Lys4 [b-H3(1-18)K4me3] (final 50nM) were added in 1x PBS buffer, pH 7.4, containing 0.01% Tween-20, using a nanoliter dispenser. Formation of a protein-peptide complex proceeded at room temperature for 30 min. A Kalypsys pin-tool transferred 23nl of library compound solution in DMSO to each well. Following a 30 min incubation of the protein-peptide complex with compounds at room temperature, a mixture of 40 µg/mL each streptavidin-coated donor and nickel chelate acceptor AlphaScreen beads (final 10 µg/mL) was added in a 1ul dispense for a final volume of 4ul, followed by a brief centrifugation (1000 rpm, 1 min). Plates were incubated protected from the light for 20 min at room temperature. Microplates were then read on an EnVision multilabel plate reader using the 1,536 plate HTS AlphaScreen aperture (excitation time 80 ms, measurement time 240 ms).
On the % scale 0 is the no-effect control and ±100 the full control effect; potency means the concentration at half of the fitted maximal effect; tags describe the fitted curve by direction and shape.

Sequence of UniProt O75164 (O75164 whole entry, looked up, the tested form may be a part): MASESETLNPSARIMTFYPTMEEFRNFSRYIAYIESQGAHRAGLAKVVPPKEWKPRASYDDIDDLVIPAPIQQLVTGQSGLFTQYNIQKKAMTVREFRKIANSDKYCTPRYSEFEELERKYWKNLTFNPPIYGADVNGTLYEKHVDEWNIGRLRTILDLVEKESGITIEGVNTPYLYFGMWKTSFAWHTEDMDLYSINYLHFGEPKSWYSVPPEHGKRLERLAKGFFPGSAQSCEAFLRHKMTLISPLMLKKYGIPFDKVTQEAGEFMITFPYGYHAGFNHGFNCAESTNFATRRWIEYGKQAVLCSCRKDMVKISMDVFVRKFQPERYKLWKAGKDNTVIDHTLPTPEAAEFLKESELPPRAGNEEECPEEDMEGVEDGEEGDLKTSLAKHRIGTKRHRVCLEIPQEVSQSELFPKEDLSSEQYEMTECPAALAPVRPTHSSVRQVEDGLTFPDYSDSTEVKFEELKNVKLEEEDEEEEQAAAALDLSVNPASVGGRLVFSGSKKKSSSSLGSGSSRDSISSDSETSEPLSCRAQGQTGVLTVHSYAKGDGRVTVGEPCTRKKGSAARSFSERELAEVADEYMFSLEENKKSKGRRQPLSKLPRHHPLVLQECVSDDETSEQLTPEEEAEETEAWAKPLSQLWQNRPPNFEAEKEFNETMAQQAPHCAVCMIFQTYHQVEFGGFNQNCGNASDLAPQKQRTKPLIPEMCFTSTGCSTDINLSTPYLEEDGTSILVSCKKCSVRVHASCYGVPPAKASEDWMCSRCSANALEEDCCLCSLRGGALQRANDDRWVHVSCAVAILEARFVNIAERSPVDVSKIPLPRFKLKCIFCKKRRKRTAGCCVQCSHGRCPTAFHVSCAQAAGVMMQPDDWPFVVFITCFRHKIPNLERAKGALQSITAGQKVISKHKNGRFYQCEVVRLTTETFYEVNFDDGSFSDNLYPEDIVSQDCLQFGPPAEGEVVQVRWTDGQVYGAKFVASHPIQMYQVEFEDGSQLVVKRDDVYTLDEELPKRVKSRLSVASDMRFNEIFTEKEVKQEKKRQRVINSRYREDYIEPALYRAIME

**Q.** With O=c1cc(-c2ccc(O)c(O)c2)oc2cc(O)cc(O)c12 as the compound, how does the Potency read?
**A.** active: 44.7 µM

**Q.** How did the Potency turn out when C[N+](C)(C)c1ccccc1 was run?
**A.** inconclusive: 56.2 µM [inhibitor, partial curve]

**Q.** How did the Potency turn out when OCCN(Cc1ccccc1)Cc1cccc(F)c1 was run?
**A.** active: 7.08 µM

**Q.** O=C(c1ccccc1F)c1cn(CC(=O)N2CCCC2)c2ccccc12 was tested. Which Potency did it give?
**A.** inconclusive: 5.62 µM [inhibitor, single point]

**Q.** For CC(C)NC(=O)C(C)N1CCN(S(=O)(=O)c2ccc3ccccc3c2)CC1 (stereo not given), which Potency is on record?
**A.** active: 3.16 µM

**Q.** With c1ccc2c(CCNC3CCCCC3)c[nH]c2c1 as the compound, how does the Potency read?
**A.** active: 31.6 µM

**Q.** COc1ccc(/C=C2\C(=O)NC(=O)N(CCC3=CCCCC3)C2=O)c(OC)c1 was tested. Which “activity change, negative = inhibition” value did it give?
**A.** inactive: -42.1%

**Q.** Which Potency does the source give for CCOP1(=S)Oc2cc3c(cc2C(C(=O)OC)(C(F)(F)F)O1)OCO3 (stereo not given) here?
**A.** inconclusive: 89.1 µM [inhibitor, partial curve]

**Q.** How did the Potency turn out when CCN(CC)CCOC(=O)c1cc2cc(COC)ccc2o1 was run?
**A.** active: 56.2 µM

**Q.** Which Potency does the source give for COc1cccc(CN2CCCCC2c2cccnc2)c1 (stereo not given) here?
**A.** inconclusive: 89.1 µM [inhibitor, partial curve]

**Q.** NS(=O)(=O)c1ccc(CNC(=O)COc2ccc3c4c(c(=O)oc3c2)CCCC4)cc1 was tested. Which Potency did it give?
**A.** active: 35.5 µM

**Q.** For COc1cccc(CN2CCCC(C(=O)c3ccccc3SC)C2)c1O (stereo not given), which Potency is on record?
**A.** inconclusive: 63.1 µM [inhibitor, partial curve]

**Q.** With CN1CCN(C2=Nc3cc(Cl)ccc3Nc3ccccc32)CC1 as the compound, how does the Potency read?
**A.** inconclusive: 79.4 µM [inhibitor, partial curve]

**Q.** With C[C@H](CO)N1C[C@H](C)[C@@H](CN(C)S(=O)(=O)c2cccs2)Oc2ccc(NC(=O)Nc3ccc4c(c3)OCO4)cc2C1=O as the compound, how does the Potency read?
**A.** inconclusive: 14.1 µM [inhibitor, full curve, poor fit]

**Q.** How did the Potency turn out when O=c1c2ccccc2nc(/C=C/c2ccccc2)n1-c1ccccc1O was run?
**A.** inconclusive: 5.62 µM [inhibitor, partial curve, poor fit]

**Q.** O=c1[nH]c(=S)[nH]c(O)c1/C=C1/C=c2ccccc2=N1 was tested. Which Potency did it give?
**A.** inconclusive: 89.1 µM [inhibitor, single point]

**Q.** Which Potency does the source give for COC(=O)C1=C(c2ccc(F)cc2OCc2ccccc2)C[C@@H]2CC[C@H]1N2C(=O)NCc1ccc([N+](=O)[O-])cc1 here?
**A.** inconclusive: 20 µM [inhibitor, full curve, poor fit]

**Q.** For NC(Cc1ccccc1)c1nn[nH]n1 (stereo not given), which Potency is on record?
**A.** inconclusive: 2.82 µM [inhibitor, full curve, poor fit]

**Q.** CCOc1cc(-c2nc3c(C)cccn3c2NCC2CCCO2)ccc1O (stereo not given) was tested. Which Potency did it give?
**A.** inconclusive: 89.1 µM [inhibitor, partial curve]

**Q.** Cc1ccc(Cn2nnnc2CN2CCC(n3nnc4ccccc43)CC2)cc1 was tested. Which Potency did it give?
**A.** active: 50.1 µM

**Q.** COC(=O)C1=C(c2cc3ccccc3o2)C[C@@H]2CC[C@H]1N2C(=O)NC(C)C was tested. Which Potency did it give?
**A.** active: 39.8 µM

**Q.** C=Cc1ccc(Cn2c(C)c(CNCCc3cc(OC)ccc3OC)c(C(=O)O)c2C)cc1 was tested. Which Potency did it give?
**A.** inconclusive: 70.8 µM [inhibitor, single point]

**Q.** How did the “activity change, negative = inhibition” value turn out when CC(=O)Nc1ccc2c(c1)CC1(C(=O)N(C)C(=O)N(C)C1=O)C1CCCN21 (stereo not given) was run?
**A.** inactive: -7.19%

**Q.** O=C(Nc1ccccc1)c1c(O)[nH]c(=S)[nH]c1=O was tested. Which Potency did it give?
**A.** inconclusive: 89.1 µM [inhibitor, partial curve]

**Q.** For CCN(CC)c1ccc(CN2CC=C(c3ccc(F)cc3)CC2)cc1, which Potency is on record?
**A.** active: 50.1 µM

**Q.** Which Potency does the source give for CCOC(=O)c1c(C)n(Cc2ccccc2)c2ccc(O)cc12 here?
**A.** inconclusive: 44.7 µM [inhibitor, partial curve]

**Q.** With CC(C)c1ccc2c(c1)C(N1CCNCC1)Cc1ccc(F)cc1S2 (stereo not given) as the compound, how does the Potency read?
**A.** inconclusive: 35.5 µM [inhibitor, partial curve, poor fit]

**Q.** How did the “activity change, negative = inhibition” value turn out when CCCCn1c(O)c(C(C)=Nc2ccc(OCC)cc2)c(=O)[nH]c1=O was run?
**A.** inactive: -20.8%

**Q.** Which Potency does the source give for O=C1NC(=O)N(c2cccc(Cl)c2)C(=O)/C1=C\c1ccc(Sc2nc3ccccc3[nH]2)o1 here?
**A.** active: 35.5 µM

**Q.** Which Potency does the source give for N#CC(C#N)=NNc1ccc(-n2ccc(C(F)(F)F)n2)cc1 here?
**A.** inconclusive: 25.1 µM [inhibitor, full curve]

**Q.** Which Potency does the source give for O=Cc1ccc(O)c(O)c1 here?
**A.** active: 22.4 µM

**Q.** O=C(NC1(C(F)(F)F)Oc2ccccc2O1)N1CCC2(CC1)OCCO2 was tested. Which Potency did it give?
**A.** active: 44.7 µM

**Q.** CCCCn1c(O)c(C(C)=Nc2ccc(C(=O)O)cc2)c(=O)[nH]c1=O was tested. Which Potency did it give?
**A.** inconclusive: 89.1 µM [inhibitor, single point]

**Q.** How did the Potency turn out when NC(N)=N/N=C/c1cn(-c2ccccc2)nc1-c1cccs1 was run?
**A.** inconclusive: 50.1 µM [inhibitor, partial curve]

**Q.** Which Potency does the source give for O=C(O)C(Cc1cnc[nH]1)NS(=O)(=O)c1ccc(Br)cc1 (stereo not given) here?
**A.** active: 10 µM
